Measurements reported in US5721210A, “Cyclic cell adhesion modulation compounds” (priority 1995, dated 1998).
Not every detail of the peptide structures is certain; ends, links or a residue may be inferred. Bridge positions count the residues as written; N and C are the ends. Square brackets hold non-standard residues; d marks the D form. Peptide text beside a SMILES is read from it. * marks the point of attachment. Phe(4-NO2) = N[C@@H](Cc1ccc([N+](=O)[O-])cc1)C(=O)O; Acetyl(1-adamantyl) = O=C(CC12CC3CC(CC(C3)C1)C2)*; Fluorene(1-CO) = O=C(c1cccc2c1Cc1ccccc1-2)*; Phe(4-Cl) = N[C@@H](Cc1ccc(Cl)cc1)C(=O)O; 2Nal = N[C@@H](Cc1ccc2ccccc2c1)C(=O)O; Thz(5,5-Me2) = CC1(C)SCN[C@@H]1C(=O)O; Fmoc = O=C(OCC1c2ccccc2-c2ccccc21)*; Hydrocinnamoyl = O=C(CCc1ccccc1)*; Quinaldoyl = O=C(c1ccc2ccccc2n1)*; hCys = N[C@@H](CCS)C(=O)O; Ac6c = NC1(C(=O)O)CCCCC1; Thz = O=C(O)[C@@H]1CSCN1; Ahx = NCCCCCC(=O)O; GABA = NCCCC(=O)O; Mpa = O=C(O)CCS

System: U937 cells (fibronectin receptor) adhering to fibronectin-coated wells
Conditions: read-out: IC50 μM; U937 cells on fibronectin-coated wells, 60 min at 37° C.; concentration at which adhesion is inhibited to 50% of control

SMILES	IC50
N=C(N)NCCC[C@@H]1NC(=O)[C@@H](NC(=O)CCCNC(=O)CC23CC4CC(CC(C4)C2)C3)CSSC[C@@H](C(N)=O)NC(=O)[C@@H]2CSCN2C(=O)[C@H](Cc2ccc(O)cc2)NC(=O)[C@H](CC(=O)O)NC(=O)CNC1=O [Peptide 82, (Ada)-(AnB)-C*RGDY-(3-thioPro)-C*NH2] ({Acetyl(1-adamantyl)-GABA}-CRGDY[Thz]C-NH2; disulfide 1-7)	68 µM
N=C(N)NCCC[C@@H]1NC(=O)[C@@H](N)CSSC[C@@H](C(=O)O)NC(=O)[C@H](CC(=O)O)NC(=O)CNC1=O [Peptide 8, C*RGDC*] (H-CRGDC-OH; disulfide 1-5)	1460 µM
N=C(N)NCCC[C@@H]1NC(=O)[C@@H](NC(=O)CNC(=O)CNC(=O)c2ccc3ccccc3n2)CSSC[C@@H](C(N)=O)NC(=O)[C@@H]2CSCN2C(=O)[C@H](Cc2ccccc2)NC(=O)[C@H](CC(=O)O)NC(=O)CNC1=O [Peptide 85, (QC)GGC*RGDF-(3-thioPro)-C*-NH2] (Quinaldoyl-GGCRGDF[Thz]C-NH2; disulfide 3-9)	138 µM
N=C(N)NCCC[C@@H]1NC(=O)[C@@H](NC(=O)CNC(=O)CNC(=O)CC23CC4CC(CC(C4)C2)C3)CSSC[C@@H](C(N)=O)NC(=O)[C@@H]2CSCN2C(=O)[C@H](Cc2ccc(Cl)cc2)NC(=O)[C@H](CC(=O)O)NC(=O)CNC1=O [Peptide 90, (Ada)-GGC*RGD(p-chloro-Phe)-(3-thioPro)C*-NH2] ({Acetyl(1-adamantyl)}-GGCRGD[Phe(4-Cl)][Thz]C-NH2; disulfide 3-9)	5 µM
N=C(N)NCCC[C@@H]1NC(=O)[C@@H](NC(=O)CNC(=O)CNC(=O)CC23CC4CC(CC(C4)C2)C3)CSSC[C@@H](C(N)=O)NC(=O)[C@@H]2CSCN2C(=O)[C@H](Cc2ccccc2)NC(=O)[C@H](CC(=O)O)NC(=O)CNC1=O [Peptide 84, (Ada)-GGC*RGDF-(3-thioPro)-C*-NH2] ({Acetyl(1-adamantyl)}-GGCRGDF[Thz]C-NH2; disulfide 3-9)	15 µM
N=C(N)NCCC[C@@H]1NC(=O)CCSSC[C@@H](C(N)=O)NC(=O)[C@@H]2CSCN2C(=O)[C@H](Cc2ccc(O)cc2)NC(=O)[C@H](CC(=O)O)NC(=O)CNC1=O [Peptide 69, (Mpr*)-RGDY-(-thioPro)C*-NH2] ([Mpa]RGDY[Thz]C-NH2; disulfide 1-7)	102 µM
N=C(N)NCCC[C@H]1NC(=O)CNC(=O)[C@@H](CC(=O)O)NC(=O)[C@@H](CO)NC(=O)[C@H]2CCCN2C(=O)[C@H](N)CSSC[C@H](C(=O)O)NC1=O [Peptide 26, (dC*)(dP)(dS)(dD)G(dR)(dC*)] (H-[dC][dP][dS][dD]G[dR][dC]-OH; disulfide 1-7)	1160 µM
N=C(N)NCCC[C@@H]1NC(=O)[C@@H](NC(=O)CNC(=O)CNC(=O)CC23CC4CC(CC(C4)C2)C3)CSSC[C@@H](C(N)=O)NC(=O)[C@@H]2CCCN2C(=O)[C@H](Cc2ccc(O)cc2)NC(=O)[C@H](CC(=O)O)NC(=O)CNC1=O (single isomer, unassigned) [Peptide 54, (Ada)-GGC*RGDYPC*-NH2]	39 µM
N=C(N)NCCC[C@@H]1NC(=O)[C@@H](NC(=O)CNC(=O)CC23CC4CC(CC(C4)C2)C3)CSSC[C@@H](C(=O)O)NC(=O)[C@@H]2CCCN2C(=O)[C@H](Cc2ccc(O)cc2)NC(=O)[C@H](CC(=O)O)NC(=O)CNC1=O [Peptide 59, (Ada)-GC*RGDYPC*] ({Acetyl(1-adamantyl)}-GCRGDYPC-OH; disulfide 2-8)	81 µM
N=C(N)NCCC[C@@H]1NC(=O)[C@@H](NC(=O)CNC(=O)CNC(=O)CCc2ccccc2)CSSC[C@@H](C(N)=O)NC(=O)[C@@H]2CSCN2C(=O)[C@H](Cc2ccccc2)NC(=O)[C@H](CC(=O)O)NC(=O)CNC1=O [Peptide 86, (HCA)-GGC*RGDF-(3-thioPro)-C*-NH2] (Hydrocinnamoyl-GGCRGDF[Thz]C-NH2; disulfide 3-9)	107 µM
N=C(N)NCCC[C@H](N)C(=O)N[C@H]1CSSC[C@@H](C(=O)O)NC(=O)[C@H](Cc2ccc3ccccc3c2)NC(=O)[C@H](CC(=O)O)NC1=O [Peptide 105, RC*D(L-Nal)C*] (H-RCD[2Nal]C-OH; disulfide 2-5)	463 µM
CC(C)C[C@@H]1NC(=O)CCSSC[C@@H](C(=O)O)NC(=O)[C@@H]2CCCN2C(=O)[C@H](CO)NC(=O)[C@H](CC(=O)O)NC(=O)CNC(=O)[C@H](CCCNC(=N)N)NC1=O [Peptide 12, (Mpr*)LRGDSPC*] ([Mpa]LRGDSPC-OH; disulfide 1-8)	611 µM
N=C(N)NCCC[C@@H]1NC(=O)[C@@H](NC(=O)CNC(=O)CNC(=O)CC23CC4CC(CC(C4)C2)C3)CSSC[C@@H](C(=O)O)NC(=O)C2(CCCCC2)NC(=O)[C@H](Cc2ccc(O)cc2)NC(=O)[C@H](CC(=O)O)NC(=O)CNC1=O [Peptide 95, (Ada)-GGC*RGDY(1,1-ACC)C*] ({Acetyl(1-adamantyl)}-GGCRGDY[Ac6c]C-OH; disulfide 3-9)	301 µM
N=C(N)NCCC[C@@H]1NC(=O)CNC(=O)[C@@H](N)CCC(=O)NCCCC[C@@H](C(=O)N[C@@H](CO)C(=O)N[C@@H](CO)C(=O)O)NC(=O)[C@@H]2CCCN2C(=O)[C@H](CO)NC(=O)[C@H](CC(=O)O)NC(=O)CNC1=O [Peptide 17, E*GRGDSPK*SS] (H-EGRGDSPKSS-OH; lactam 1-8)	1060 µM
N=C(N)NCCC[C@@H]1NC(=O)[C@@H](NC(=O)CNC(=O)CNC(=O)CC23CC4CC(CC(C4)C2)C3)CSSC[C@@H](C(N)=O)NC(=O)[C@@H]2CSCN2C(=O)[C@H](Cc2ccc(O)cc2)NC(=O)[C@H](CC(=O)O)NC(=O)CNC1=O [Peptide 51, (Ada)-GGC*RGDY-(3-thioPro)-C*NH2] ({Acetyl(1-adamantyl)}-GGCRGDY[Thz]C-NH2; disulfide 3-9)	7 µM
N=C(N)NCCC[C@@H]1NC(=O)[C@@H](N)CSSC[C@@H](C(=O)O)NC(=O)[C@@H]2CCCN2C(=O)[C@H](Cc2ccc([N+](=O)[O-])cc2)NC(=O)[C@H](CC(=O)O)NC(=O)CNC1=O [Peptide 73, C*RGD(p-nitro-Phe)PC*] (H-CRGD[Phe(4-NO2)]PC-OH; disulfide 1-7)	20 µM
CC(C)[C@H](N)C(=O)N[C@H](C(=O)N[C@H]1CSSC[C@@H](C(=O)N[C@@H](C)C(N)=O)NC(=O)[C@@H]2CCCN2C(=O)[C@H](CO)NC(=O)[C@H](CC(=O)O)NC(=O)CNC(=O)[C@H](CCCNC(=N)N)NC(=O)CNC1=O)[C@@H](C)O [Peptide 24, VTC*GRGDSPC*A-NH2] (H-VTCGRGDSPCA-NH2; disulfide 3-10)	50 µM
N=C(N)NCCC[C@@H]1NC(=O)[C@@H](NC(=O)CCCCCNC(=O)CC23CC4CC(CC(C4)C2)C3)CSSC[C@@H](C(N)=O)NC(=O)[C@@H]2CSCN2C(=O)[C@H](Cc2ccc(O)cc2)NC(=O)[C@H](CC(=O)O)NC(=O)CNC1=O [Peptide 83, (Ada)-(AnC)-C*RGDY-(3-thioPro)-C*NH2] ({Acetyl(1-adamantyl)-Ahx}-CRGDY[Thz]C-NH2; disulfide 1-7)	84 µM
N=C(N)NCCC[C@@H]1NC(=O)[C@@H](N)CCSSC[C@@H](C(N)=O)NC(=O)[C@@H]2CSCN2C(=O)[C@H](Cc2ccc(Cl)cc2)NC(=O)[C@H](CC(=O)O)NC(=O)CNC1=O [Peptide 128, HomoC*RGD(p-chloro-Phe)-(3-thioPro)C*-NH2] (H-[hCys]RGD[Phe(4-Cl)][Thz]C-NH2; disulfide 1-7)	96 µM
CC1(C)SCN2C(=O)[C@H](CC(=O)O)NC(=O)[C@@H](NC(=O)[C@H](CCCNC(=N)N)NC(=O)OCC3c4ccccc4-c4ccccc43)CSSC[C@@H](C(=O)O)NC(=O)[C@@H]21 [Peptide 120, (FMOC)-RC*D(DTC)C*] (Fmoc-RCD[Thz(5,5-Me2)]C-OH; disulfide 2-5)	10 µM
CC(C)[C@@H]1NC(=O)[C@H](CC(=O)O)NC(=O)CNC(=O)[C@H](CCCNC(=N)N)NC(=O)[C@@H](NC(=O)CNC(=O)CNC(=O)CC23CC4CC(CC(C4)C2)C3)CSSC[C@@H](C(=O)O)NC1=O [Peptide 67, (Ada)-GGC*RGDVC*] ({Acetyl(1-adamantyl)}-GGCRGDVC-OH; disulfide 3-8)	148 µM
N=C(N)NCCC[C@@H]1NC(=O)[C@@H](NC(=O)CNC(=O)CNC(=O)c2cccc3c2Cc2ccccc2-3)CSSC[C@@H](C(=O)O)NC(=O)[C@@H]2CSCN2C(=O)[C@H](Cc2ccc(Cl)cc2)NC(=O)[C@H](CC(=O)O)NC(=O)CNC1=O [Peptide 91, (1-FCA)-GGC*RGD(p-chloro-Phe)-(3-thioPro)-C*] ({Fluorene(1-CO)}-GGCRGD[Phe(4-Cl)][Thz]C-OH; disulfide 3-9)	37 µM
N=C(N)NCCC[C@H](N)C(=O)N[C@H]1CSSC[C@@H](C(=O)O)NC(=O)[C@H](Cc2ccc(O)cc2)NC(=O)[C@H](CC(=O)O)NC1=O [Peptide 103, RC*DYC*] (H-RCDYC-OH; disulfide 2-5)	318 µM
N=C(N)NCCC[C@@H]1NC(=O)[C@@H](NC(=O)CC23CC4CC(CC(C4)C2)C3)CSSC[C@@H](C(=O)O)NC(=O)[C@H](CC(=O)O)NC(=O)CNC1=O [Peptide 64, (Ada)-C*RGDC*] ({Acetyl(1-adamantyl)}-CRGDC-OH; disulfide 1-5)	267 µM
CC(C)[C@@H]1NC(=O)[C@H](CC(=O)O)NC(=O)CNC(=O)[C@H](CCCNC(=N)N)NC(=O)[C@@H](NC(=O)CNC(=O)CNC(=O)CC23CC4CC(CC(C4)C2)C3)CSSC[C@@H](C(=O)O)NC(=O)[C@@H]2CCCN2C1=O [Peptide 55, (Ada)-GGC*RGDVPC*] ({Acetyl(1-adamantyl)}-GGCRGDVPC-OH; disulfide 3-9)	30 µM
C[C@@H](O)[C@@H]1NC(=O)[C@H](CC(=O)O)NC(=O)CNC(=O)[C@H](CCCNC(=N)N)NC(=O)[C@@H](N)CSSC[C@@H](C(=O)O)NC(=O)[C@@H]2CCCN2C1=O [Peptide 44, C*RGDTPC*] (H-CRGDTPC-OH; disulfide 1-7)	91 µM
N=C(N)NCCC[C@@H]1NC(=O)CNC(=O)CCSSC[C@@H](C(=O)O)NC(=O)[C@@H]2CCCN2C(=O)[C@H](CO)NC(=O)[C@H](CC(=O)O)NC(=O)CNC1=O [Peptide 11, (Mpr*)GRGDSPC*] ([Mpa]GRGDSPC-OH; disulfide 1-8)	330 µM
N=C(N)NCCC[C@@H]1NC(=O)CNC(=O)[C@@H](N)CSSC[C@@H](C(=O)O)NC(=O)[C@@H]2CCCN2C(=O)[C@H](CO)NC(=O)[C@H](CC(=O)O)NC(=O)CNC1=O [Peptide 4, C*GRGDSPC*] (H-CGRGDSPC-OH; disulfide 1-8)	597 µM
